Laboratory results taken from PubChem BioAssay AID1768 (National Center for Advancing Translational Sciences (NCATS), 2009).
Out of some 270,000 compounds screened, about 620 (0.23%) were called active. The inconclusive results got no clear call from the source; some entries with a clear call stand among them for comparison. The call rests on the fitted dose curve; in most records, active means well fitted inhibition curve with a large enough effect in the polarisation, with a control signal flat (not every such curve was filed as active); inconclusive means small, poorly fitted or top-dose-only effect, or effect the other way, or a change in a side signal; inactive means no such curve, though single readings can be large or run the other way; the % refers to the polarisation. A potency beside an inconclusive call is a rough fit, not a confirmed value. “Side channel” marks fits to a control or component signal instead of the main read-out.
Potency means the concentration at half of the fitted maximal effect; tags describe the fitted curve by direction and shape or compound fluorescence and quenching.
Wherever FP activity change, negative = inhibition is given: % of control where 0% means no effect.

The compounds below were run against Menin (Homo sapiens) (UniProt O00255) (assay: qHTS Assay for Inhibitors Targeting the Menin-MLL Interaction in MLL Related Leukemias: Competition With Texas Red Labeled MLL-derived Mutant Peptide). Conditions: fluorescence polarization; FP activity change, negative = inhibition: at 61.6 µM (top of the series).
Chain of UniProt O00255 (O00255 whole entry, looked up): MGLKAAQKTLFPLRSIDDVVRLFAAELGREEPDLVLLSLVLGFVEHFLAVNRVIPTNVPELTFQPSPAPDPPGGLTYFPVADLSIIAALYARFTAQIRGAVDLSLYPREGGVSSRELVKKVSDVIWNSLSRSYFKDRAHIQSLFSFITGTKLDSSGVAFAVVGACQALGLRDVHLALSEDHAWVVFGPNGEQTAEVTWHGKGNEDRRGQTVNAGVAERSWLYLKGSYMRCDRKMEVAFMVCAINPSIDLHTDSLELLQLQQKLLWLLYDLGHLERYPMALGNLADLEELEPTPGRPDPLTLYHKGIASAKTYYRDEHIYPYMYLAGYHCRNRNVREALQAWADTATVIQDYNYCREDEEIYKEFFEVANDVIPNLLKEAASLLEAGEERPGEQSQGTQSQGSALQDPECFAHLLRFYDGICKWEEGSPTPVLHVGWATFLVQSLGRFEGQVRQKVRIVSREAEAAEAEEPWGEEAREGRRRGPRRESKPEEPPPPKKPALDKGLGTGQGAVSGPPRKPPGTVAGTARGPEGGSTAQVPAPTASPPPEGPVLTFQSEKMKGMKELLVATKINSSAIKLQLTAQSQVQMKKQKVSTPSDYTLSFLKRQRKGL
With O=C(Cc1cccs1)Nc1nc2c(s1)CCCC2 the Potency was inconclusive: 2.51 µM [inhibitor, partial curve]. In the case of COc1ccc(-c2cc(C(=O)Nc3ccc(Br)cc3)no2)cc1, the Potency is reported as inconclusive: 20 µM [fluorescent, side channel, partial curve]. For COc1ccc(N2CCN(C(=S)NC(=O)c3cccs3)CC2)c([N+](=O)[O-])c1, the Potency was inconclusive: 28.2 µM [quencher, side channel, single point]. In the case of CCOc1ccc(/C(O)=C2/C(=O)C(=O)N(Cc3cccnc3)C2c2ccc(N(C)C)cc2)c(C)c1 (stereo not given), the Potency is reported as inconclusive: 5.01 µM [inhibitor, full curve]. With Cn1c(SCc2ccc(Br)cc2)nnc1-c1cccs1 the Potency was inconclusive: 10 µM [fluorescent, side channel, partial curve]. With CCOC(=O)COc1nc(Nc2ccccc2C)nc(N(C)C)n1 the Potency was inconclusive: 39.8 µM [fluorescent, side channel, single point]. For O=C(CN1CCN(Cc2cccc3ccccc23)CC1)NCCc1ccccc1, the Potency was inconclusive: 12.6 µM [fluorescent, side channel, partial curve]. COc1ccc(-c2nc(CS(=O)CC(=O)NCCC3=CCCCC3)c(C)o2)cc1 (stereo not given) was tested, and the FP activity change, negative = inhibition was inactive: -7.87% [at 11.7 µM]. In the case of CCOC(=O)c1cnc2c(OC)cccc2c1Nc1ccc2c(c1)OCCO2, the Potency is reported as inconclusive: 3.55 µM [fluorescent, side channel, single point]. With COCc1nnc(NC(=O)c2ccc(S(=O)(=O)N(C)Cc3ccccc3)cc2)o1 the Potency was inconclusive: 11.2 µM [quencher, side channel, partial curve]. In the case of Oc1cccc(C(Nc2nccs2)c2ccc3cccnc3c2O)c1 (stereo not given), the Potency is reported as inconclusive: 35.5 µM [quencher, side channel, single point]. With NC(=O)C(c1ccccc1)(c1ccccc1)[C@@H]1CCN(CCc2ccc3c(c2)CCO3)C1 the Potency was “inactive”. With Cc1ccc(S(=O)(=O)c2nc(Nc3ccccc3C#N)sc2Cl)cc1 the Potency was inconclusive: 35.5 µM [inhibitor, single point]. For Cc1c(O)ccc(C(=O)COc2ccccc2F)c1O, the Potency was inconclusive: 17.8 µM [quencher, side channel, single point]. For COC(=O)[C@@]1(Cc2ccccc2)[C@H]2c3cc(C(=O)N(C)C)n(Cc4cc(C)n(C)n4)c3C[C@H]2CN1C(=O)c1ccccc1, the Potency was inconclusive: 12.6 µM [inhibitor, partial curve]. For COc1ccc(C(C(=O)NC(C)(C)C)N(C(=O)CCC(=O)Nc2ccccn2)C2CCCCC2)cc1 (stereo not given), the Potency was inconclusive: 14.1 µM [inhibitor, partial curve]. COC(=O)c1cnn2c(C(F)(F)F)cc(-c3ccco3)nc12 was tested, and the Potency was inconclusive: 28.2 µM [quencher, side channel, single point]. For O=C(c1ccc(Br)o1)N1CCN(CCc2ccncc2)CC1, the Potency was inconclusive: 20 µM [inhibitor, partial curve, poor fit]. CCCN(CCC)S(=O)(=O)c1cc(CN2C(=O)c3cccnc3C2=O)ccc1OC was tested, and the Potency was inconclusive: 17.8 µM [inhibitor, partial curve]. With O=C(c1c(Cl)nc2sccn12)N(C(=O)c1c(Cl)nc2sccn12)c1ccc(Cl)cn1 the Potency was inconclusive: 28.2 µM [inhibitor, single point]. In the case of Cc1oc2ccc(OCc3ccccc3Cl)cc2c1C(=O)O, the Potency is reported as inconclusive: 25.1 µM [quencher, side channel, single point]. With CCCNCC(O)COc1ccccc1C(=O)CCc1ccccc1 (stereo not given) the Potency was inconclusive: 12.6 µM [fluorescent, side channel, partial curve]. In the case of CC(CCc1ccccc1)NCC(O)COc1ccccc1 (stereo not given), the Potency is reported as inconclusive: 12.6 µM [fluorescent, side channel, partial curve]. With Cc1cc(C)c(C)c(OCCNCc2ccccc2)c1 the Potency was inconclusive: 7.94 µM [fluorescent, side channel, partial curve]. In the case of O=[N+]([O-])c1ccc(/C=N/N=C/c2ccc([N+](=O)[O-])o2)o1, the Potency is reported as inconclusive: 14.1 µM [quencher, side channel, partial curve]. For O=C(Nc1ccc(Cl)c(Cl)c1)Nc1ccccc1C(=O)O, the Potency was inconclusive: 7.94 µM [quencher, side channel, full curve]. In the case of Cc1cccc(NC(=S)N=Nc2c(O)n(C)c3ccc(S(=O)(=O)N4CCOCC4)cc23)c1, the Potency is reported as inconclusive: 6.31 µM [quencher, side channel, full curve]. With Cc1ccc(S(=O)(=O)N/N=C2/CC(c3ccccc3)Oc3ccccc32)cc1[N+](=O)[O-] (stereo not given) the Potency was inconclusive: 20 µM [quencher, side channel, partial curve]. For COc1ccc(/C=N/Nc2nc(-c3ccc(C)cc3)c(C#N)c(=O)[nH]2)cc1, the Potency was inconclusive: 39.8 µM [quencher, side channel, single point]. Oc1ccccc1Nc1ncnc2c1oc1ccccc12 was tested, and the Potency was inconclusive: 10 µM [quencher, side channel, partial curve]. In the case of Cc1cccc(NC(=O)c2cnc3sccn3c2=O)c1, the Potency is reported as inconclusive: 12.6 µM [quencher, side channel, partial curve]. Cc1ccc(C(=O)N2CC(=O)Nc3ccc(F)cc3C2c2ccccc2)cc1 (stereo not given) was tested, and the Potency was inconclusive: 17.8 µM [inhibitor, partial curve, poor fit]. With COc1cc(C(=O)/C=C/Nc2ccc(NC(C)=O)cc2)cc(OC)c1OC the Potency was inconclusive: 28.2 µM [quencher, side channel, single point]. In the case of CC(C)(C)c1ccc(C2C3=C(CCCC3=O)NC3=C2C(=O)c2ccccc23)cc1 (stereo not given), the Potency is reported as inconclusive: 28.2 µM [quencher, side channel, single point]. In the case of CCOc1cccc(C(=O)Nc2cccc(-c3nnc(-c4ccccc4)o3)c2)c1, the Potency is reported as inconclusive: 14.1 µM [quencher, side channel, partial curve].
